Laboratory results published in PubChem BioAssay AID1345083 (National Center for Advancing Translational Sciences (NCATS), 2018).
The whole screen tested about 94,000 compounds, of which about 6,200 (6.6%) were called active. Inconclusive results, whose numbers are uncertain, are shown with a selection of clear calls. Calls come from the whole dose curve; as a rule, active = well fitted inhibition curve with a large enough effect; inconclusive = small, poorly fitted or top-dose-only effect; inactive = flat fitted curve, though single readings scatter. Potencies of inconclusive entries are doubtful fits and often do not repeat.

Assay: Cytotoxic Profiling in HEK 293 Cell Line of Diverse Libraries Using Quantitative High-Throughput Screening; note: nearly all actives have a fitted effect of over 60% in size
Conditions: HEK 293 viability, ATP luminescence (CellTiter-Glo), 48-72 h; series mostly up to 115 µM
Outline: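 Read-out: CellTiter-Glo ATP luminescence. Cells: HEK 293, 250 cells/well. Exposure: 48 or 72 hr, 37 degree Celsius.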
Potency is the fitted concentration of half-maximal effect; tags give direction and shape of the fitted curve.

SMILES	Potency
COc1ccc(CC(=O)N2CCC3(CC2)CN(C(C)=O)CC3CO)cc1OC (centres undefined)	inactive
Cc1ccccc1C(=O)N1CCC[C@H]1c1nc(-c2ccc(F)cc2)no1	inconclusive: 44.7 µM [inhibitor, partial curve, poor fit]
NC(=O)N1CCCC(C(=O)N2CCCN(c3ccc(F)cc3)CC2)C1 (centres undefined)	inactive
CN(C)c1ccc(CN2CCC3(C2)NC(=O)c2ccccc2CO3)cc1 (centres undefined)	inconclusive: 89.1 µM [inhibitor, single point]
Oc1ccccc1CN1CCNc2cc(-c3ccccc3)ncc2C1	active: 79.4 µM
CC(=O)NC1(C)CCCN(c2ccc(Oc3ccccc3)cc2)C1 (centres undefined)	inconclusive: 56.2 µM [inhibitor, partial curve, poor fit]
O=C(c1ccc(C(F)(F)F)cc1)N1CCC2(CC1)Cc1ccccc1NC2=O	inconclusive: 31.6 µM [inhibitor, partial curve, poor fit]
COc1ccc(C(=O)N2CCN(c3nccc(Nc4ccccc4OC)n3)CC2)cc1	active: 39.8 µM
CCC(C)NC(=O)c1cc(-c2ccc(C(F)(F)F)cc2)nc2c1cnn2C (centres undefined)	inactive
CN(Cc1ccccc1)C(=O)C1CCN(c2ncncn2)CC1	inconclusive: 28.2 µM [inhibitor, full curve, poor fit]
CCNc1cc(N2CCC(CCC(=O)NCCN3CCCCCC3)CC2)ncn1	inactive
COc1ccccc1-c1cc2c(ccn2C)c(C(=O)NCCc2cnc[nH]2)n1	inconclusive: 100 µM [inhibitor, partial curve, poor fit]
C[C@H]1[C@@H]2[C@@H](O)C([C@H](C)C(=O)N(C)CCC#N)CC[C@@]2(C)CC[C@@H]1NS(C)(=O)=O (some centres undefined)	inconclusive: 35.5 µM [inhibitor, partial curve, poor fit]
CC(=O)N1CCN(C(=O)C2(C)CCc3cnc(Nc4ccccc4)nc32)CC1 (centres undefined)	inactive
O=C(CCc1cc(Cl)no1)N1CCc2c(nc3cc(-c4ccccc4)[nH]n3c2=O)C1	inactive
O=C(c1ccc(Cl)nc1)N1CCCC(C(=O)N2CCCC2c2nc3ccncc3[nH]2)C1 (centres undefined)	inactive
Cc1ccc(-c2cc3c(=O)n(CCNC(=O)c4ccc(C)s4)ccn3n2)c(C)c1	inconclusive: 50.1 µM [inhibitor, partial curve, poor fit]
CCn1ccc(C(=O)N2CCCC(c3noc(COC)n3)C2)n1 (centres undefined)	inactive
Oc1ccc(-c2nc(C3CC3)nc3c2CCN(Cc2ccccc2)CC3)cc1	inconclusive: 79.4 µM [inhibitor, partial curve, poor fit]
